Laboratory results taken from article PMC4336329 (PLoS ONE, 2015).
The whole screen tested about 310,000 compounds, of which about 2,200 (0.71%) showed an effect of 50% or more. Effects have a minus sign here. Some of the results follow.

target: human ether-à-go-go-related gene (hERG) potassium channel (human, UniProt Q12809); assay: primary screen, population patch clamp on CHO cells stably expressing hERG
Sequence (Q12809 whole entry, looked up): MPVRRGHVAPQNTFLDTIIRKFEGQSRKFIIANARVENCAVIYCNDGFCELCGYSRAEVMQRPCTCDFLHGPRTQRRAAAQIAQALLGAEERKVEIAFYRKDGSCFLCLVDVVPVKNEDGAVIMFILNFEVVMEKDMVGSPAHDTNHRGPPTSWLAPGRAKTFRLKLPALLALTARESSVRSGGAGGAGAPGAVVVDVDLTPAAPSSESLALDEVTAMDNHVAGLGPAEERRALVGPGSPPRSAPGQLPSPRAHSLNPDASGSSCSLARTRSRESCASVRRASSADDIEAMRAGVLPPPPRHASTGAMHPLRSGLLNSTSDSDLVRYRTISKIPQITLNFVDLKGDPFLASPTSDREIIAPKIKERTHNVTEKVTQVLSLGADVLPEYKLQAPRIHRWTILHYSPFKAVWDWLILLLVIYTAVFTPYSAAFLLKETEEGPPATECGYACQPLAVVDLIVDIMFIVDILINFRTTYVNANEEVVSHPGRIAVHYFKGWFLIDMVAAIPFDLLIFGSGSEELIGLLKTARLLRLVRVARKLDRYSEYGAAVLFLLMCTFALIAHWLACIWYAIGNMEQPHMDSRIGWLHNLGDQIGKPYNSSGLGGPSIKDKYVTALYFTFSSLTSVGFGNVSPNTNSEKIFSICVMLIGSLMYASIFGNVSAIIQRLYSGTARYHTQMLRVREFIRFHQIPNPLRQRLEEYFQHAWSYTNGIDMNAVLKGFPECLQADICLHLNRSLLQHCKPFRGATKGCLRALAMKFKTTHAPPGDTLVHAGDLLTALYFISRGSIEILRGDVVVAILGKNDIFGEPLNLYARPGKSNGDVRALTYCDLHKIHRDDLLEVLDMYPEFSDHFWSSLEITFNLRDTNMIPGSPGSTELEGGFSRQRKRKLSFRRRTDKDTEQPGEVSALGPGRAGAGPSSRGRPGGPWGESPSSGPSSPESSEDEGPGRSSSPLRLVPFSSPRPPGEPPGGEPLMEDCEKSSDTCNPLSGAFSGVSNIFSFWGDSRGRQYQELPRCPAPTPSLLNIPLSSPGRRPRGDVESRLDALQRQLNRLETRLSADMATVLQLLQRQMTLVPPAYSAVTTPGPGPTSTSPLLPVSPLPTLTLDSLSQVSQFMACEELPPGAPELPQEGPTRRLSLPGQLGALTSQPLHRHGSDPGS

Row | Structure (SMILES) | hERG current change (%, negative = inhibition) at 1uM [%]
1 | CCCCCCCCN1[C@@H](CC(=O)OC)c2cc(C(F)(F)F)ccc2S1(=O)=O | 14
2 | COc1ccc(NC(=O)c2ccco2)cc1NC(=O)c1ccc(C)cc1 | 16.5
3 | CC(C)CC(=O)N=C1SC2CS(=O)(=O)CC2N1Cc1ccccc1Cl (stereo not drawn) | 12.8
4 | Cc1ccc(-c2nc(CN3CCN(C(=O)C4CCCO4)CC3)cs2)cc1 (stereo not drawn) | 18.1
5 | Cc1ccc(N=C2CSC(=O)N2)cc1 | 6.29
6 | CC1CCCCC1NC(=O)CCNS(=O)(=O)c1ccc2c(c1)CCC(=O)N2 (stereo not drawn) | 11.3
7 | O=C(COc1ccccc1)OCC(=O)c1c[nH]c2ccccc12 | 6.35
8 | COc1ccc(CC(=O)c2ccc(OC)c(OC)c2C)cc1OC | 4.93
9 | CCOC(=O)C(=CNc1ccc2c(c1)c1ccccc1n2CC)C(=O)OCC | 15.2
10 | Cc1ccccc1-c1nc(CN2CCC(C(=O)NCCCN3CCOCC3)CC2)c(C)o1 | 5.85
11 | CC12CCC(C(=O)NCCCn3ccnc3)(OC1=O)C2(C)C (stereo not drawn) | 16.8
12 | O=C(c1cn[nH]c1)N1CCc2c([nH]c3ccccc23)C1c1c(F)cccc1Cl (stereo not drawn) | 0.034
13 | COc1ccc(S(=O)(=O)N(CC(=O)NCCCN(C)C)c2ccc(C)cc2)cc1OC | -25.1
14 | COc1ccc(NC(=O)c2cc3c(Cl)nc4ccccc4c3s2)c(OC)c1 | 2.69
15 | O=C(NCc1ccco1)C1CCCN(S(=O)(=O)c2ccccc2)C1 (stereo not drawn) | 10.7
16 | O=C(Oc1ccc(C(=S)N2CCOCC2)cc1Cl)c1ccccc1F | 14.1
17 | Cc1ccc(OCCn2cc(C(=O)O)c3ccccc32)cc1 | 7.32
18 | O=C(CSCc1cc(=O)n2nc(C3CC3)sc2n1)Nc1ccccc1Cl | 11
19 | O=C(O)c1ccc(-c2sc(Nc3ccccc3)n[n+]2-c2ccccc2)cc1.[Cl-] | 6.9
20 | O=C(COc1ccc(C(=O)NCCN2CCOCC2)cc1)Nc1cccc(C(F)(F)F)c1 | -4.02
21 | c1ccc(-c2ccc(-c3nc(-c4ccccn4)no3)cc2)cc1 | 11.4
22 | O=C(O)c1c[nH]c(=S)n1-c1ccc(F)cc1 | 24.1
23 | CC(C)CNC(=O)CN(C1CCCCC1)S(C)(=O)=O | 7.68

Row | Structure (SMILES) | hERG current change (%, negative = inhibition) at 1uM [%]
24 | COc1ccc(Cl)cc1NC(=O)CN1CCN(S(=O)(=O)N2CCC(C)CC2)CC1 | -3.67
25 | O=C(COC(=O)CNS(=O)(=O)c1cccc(Br)c1)NC(=O)Nc1ccc2c(c1)OCCO2 | 15.8
26 | CC(=O)Nc1ccc(N=Cc2c(O)ccc3ccccc23)cc1 | 9.71
27 | Cc1c(C(=O)O)sc2ncnc(N3CCCCC3C)c12 (stereo not drawn) | 16.4
28 | CCc1cccc(NC(=O)C2CCCN(S(=O)(=O)c3c(C)[nH]c(=O)[nH]c3=O)C2)c1 (stereo not drawn) | 7.07
29 | COC(=O)C1=C(c2cccc(C#N)c2)C[C@@H]2CC[C@H]1N2C(=O)NC1CCCCC1 | 20.5
30 | O=C(Nc1ncc(Cl)cn1)c1cccs1 | 16.6
31 | CC(=O)Nc1ccc(Nc2cc(C)nc3c(-c4ccc(Cl)cc4)c(C)nn23)cc1 | 7.31
32 | O=C(COC(=O)CCC(=O)c1ccccc1)NCCc1ccccc1 | 4.19
33 | CCc1nnc(NC(=O)c2ccc(S(=O)(=O)NC3CCCCC3)cc2)s1 | 14.1
34 | CSc1ccc(NC(=O)Nc2cccn(Cc3ccccc3F)c2=O)cc1 | 14.2
35 | O=C(CSc1ncccn1)NCc1cccs1 | 3.46
36 | Cc1cc(/C=C2/NC(=O)NC2=O)c(C)n1-c1ccccn1 | -4.25
37 | CC1=Nc2ccccc2N=C(NC(=O)CSC(=S)N2CCCCC2)C1c1ccccc1 (stereo not drawn) | 2.66
38 | CC(C)[C@@H]1N[C@]2(C(=O)Nc3ccccc32)[C@@H]2C(=O)N(c3cccc(C(F)(F)F)c3)C(=O)[C@@H]21 | -0.552
39 | Nc1cc(N)nc(SCC(=O)Nc2ccc3c(c2)OCCCO3)n1 | 6.3
40 | Cc1nn(C(=O)CCC(=O)NCc2cccc(F)c2)c2ccccc12 | 13
41 | C=CCNc1nc(C)c(C(C)=O)cc1C#N | 14.9
42 | COc1cc(/C=N/NC(=O)c2cccnc2)ccc1OC(=O)c1ccc2c(c1)OCO2 | 15
43 | CCOc1ccc(N2CC(C(=O)NCCc3ccc(S(N)(=O)=O)cc3)CC2=O)cc1 (stereo not drawn) | 13.7
44 | O=C(c1cc(-c2ccc(Cl)s2)nc2ccccc12)N1CCOCC1 | -0.619
45 | CC(C)Oc1ccc(S(=O)(=O)N(C(C)C)C(C)C)cn1 | 7.54
